Test results reported in the supplement of paper PMC3334620.
Over roughly 33,000 sequences, “E-score (-0.5 to 0.5)” has its median near -0.021; the highest 2% begin near 0.32. This is one part of the list.

molecular target: T1, Zap1 (UniProt P47043); assay: PBM E-score (8-mer binding enrichment) (E-score (-0.5 to 0.5)); higher = stronger / more preferred TF binding; most listed sequences are background and not binding sites; details: protein concentration: 200 nM; construct: GST-full length
T1 sequence: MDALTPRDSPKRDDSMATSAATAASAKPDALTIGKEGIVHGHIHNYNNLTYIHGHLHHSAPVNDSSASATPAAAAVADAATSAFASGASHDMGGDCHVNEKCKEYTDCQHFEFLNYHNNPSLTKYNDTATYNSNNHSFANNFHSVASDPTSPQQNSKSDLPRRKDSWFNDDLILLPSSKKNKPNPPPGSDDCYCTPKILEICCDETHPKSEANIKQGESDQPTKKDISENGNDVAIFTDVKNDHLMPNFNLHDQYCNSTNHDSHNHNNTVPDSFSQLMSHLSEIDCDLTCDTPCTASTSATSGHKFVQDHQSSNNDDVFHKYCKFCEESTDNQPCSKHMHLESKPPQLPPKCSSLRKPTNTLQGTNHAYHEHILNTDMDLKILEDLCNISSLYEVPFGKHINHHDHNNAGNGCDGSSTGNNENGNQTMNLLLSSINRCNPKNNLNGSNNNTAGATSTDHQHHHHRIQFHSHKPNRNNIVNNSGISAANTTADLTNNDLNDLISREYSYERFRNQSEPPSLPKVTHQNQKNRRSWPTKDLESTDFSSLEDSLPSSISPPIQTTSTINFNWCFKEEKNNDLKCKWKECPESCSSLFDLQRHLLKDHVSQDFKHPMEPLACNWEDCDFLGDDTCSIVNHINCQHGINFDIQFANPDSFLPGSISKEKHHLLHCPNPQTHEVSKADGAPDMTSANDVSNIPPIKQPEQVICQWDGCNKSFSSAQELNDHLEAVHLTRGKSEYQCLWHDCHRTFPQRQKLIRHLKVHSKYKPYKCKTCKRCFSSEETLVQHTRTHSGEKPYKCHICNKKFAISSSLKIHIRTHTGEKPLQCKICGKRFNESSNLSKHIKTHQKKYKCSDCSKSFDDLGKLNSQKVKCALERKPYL
In short: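 Universal all-10-mer Agilent arrays, fresh or stripped once, were converted to double-stranded form by primer extension. GST-tagged yeast transcription factors from PURExpress in vitro transcription/translation, full-length or DNA-binding domain only, were applied at about 100-200 nM and detected with fluorescent anti-GST. After masliner normalisation, the Universal PBM Analysis Suite scored each ungapped eight-base word together with its reverse complement by E-score.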

Sequence	PBM E-score
CAAGGGAA	-0.00803
CTTTAATC	0.109
CAGAAGTC	-0.293
TATAGCAA	-0.0234
AGTGAACC	0.165
CACGAAAG	0.104
ACCGCGCC	-0.0982
GTCTTAAA	0.0565
CATACGTC	-0.17
CGCCCTAA	-0.126
ATAATCTA	0.251
GGCGTCCC	-0.0733
ATAAGACC	0.0755
CAGCCAGC	-0.396
CGCCGGAA	-0.0648
AACCTTGA	0.429
ACCGGCCT	-0.00629
CTGTCCCC	-0.235
GACACCAA	-0.0435
GGCGCCTA	-0.26
AATACGGA	-0.106
CTTTGTTC	0.208
AACGAGAG	-0.138
TAGAGCTA	-0.0548
AAGGGTGT	0.316

Sequence	PBM E-score
AGATTAAT	0.0696
CCCACGGA	-0.0341
GGTCTCAC	-0.0454
ATGGTACG	0.176
ATGCACAC	-0.00754
AATTCGTG	-0.0517
CATGATAG	0.0631
CCTTGCTC	-0.092
CAAAGCGA	-0.00778
CGAACTTC	-0.132
CTAAGCGC	-0.0701
CAGCCTGC	-0.21
AAGGACGG	-0.256
ACAAGCAA	0.0842
CCGTTCCG	0.00545
CGATGTAC	0.064
ACCCCAGA	0.224
AGCTGCCG	-0.159
ACCCGCCA	0.085
AGACCCAG	-0.18
GTCTACAA	-0.0956
CTCGGACC	-0.116
GAATAATC	0.143
CAGATTAA	0.118
AACCGTAA	0.231

Sequence	PBM E-score
GTCTGAAA	-0.0251
GTTTCATA	-0.0343
AACTTCGG	0.0485
ATTTCAGA	-0.115
CGCAACGA	0.13
TTCGGCAA	-0.00159
CAGATGCG	-0.106
AAACTAGG	0.166
CTCAAAAA	0.0917
CGTTCCAA	0.0539
TAAGAAAA	0.129
GGTCCCCA	0.151
GTTGAACA	-0.15
AGCCCTCA	-0.192
GCCCGTAC	-0.156
CCACAAAC	0.147
GGTCTGCA	0.126
ACGCTCAT	-0.114
CGCTACGC	-0.318
AAAGGGAC	0.0521
ATTTCGGG	-0.0207
CTTTATAA	0.199
ACTCGACA	-0.111
ACTGGTAT	-0.0556
ACCGGGTC	0.293

Sequence	PBM E-score
CGGCGTAG	-0.263
ACATTTAC	-0.0287
ACAATTGC	-0.103
CTACGATC	-0.0779
ATTCAGAC	0.0646
CCTAGTGA	0.129
CGTTTTTA	0.174
GGGCATAC	-0.282
CTAAAGGC	0.0752
CTCTGTCA	-0.167
CTTACTTC	0.00964
CGAAAGTA	0.146
CTGTCCAA	-0.0805
GGTCTGAC	-0.00295
GGGCGCCA	-0.137
CCACCCTA	0.327
CCATTTCG	-0.121
GACTCGGA	-0.237
AACATAAC	0.3
CCGATTAG	-0.0444
ATCCTGGG	0.0369
CCATTTAG	0.125
CACCTGGA	0.0676
TCTTGTAA	0.105
ACGGAAGG	-0.0816

Sequence	PBM E-score
CTCGGTTA	0.187
CTATCAAA	0.0152
CCCCGAGC	-0.129
CTCCGGGC	-0.135
TCAAGCCA	-0.0541
AGATGCTG	-0.202
GCGTGCCC	-0.216
GAAAGGTA	0.363
CCTACGAG	-0.0116
CCTAGAGA	-0.0434
AAAAACCC	0.196
CTAGTGTA	0.0499
GCAGCTGC	-0.246
TCGGCGCA	-0.261
GATGCTCC	-0.301
CCCACCCG	0.324
AACTTCGT	-0.109
ATGTACTC	-0.138
ACGGCATC	-0.247
ACCCAATG	-0.0144
GTTTTTGA	0.0887
GTTGTGCA	-0.0759
CCGGTGGC	-0.225
AAGACGGT	0.0278
AGCCTCAA	-0.142

Sequence	PBM E-score
GCCTTCTA	-0.0749
ACCTTATC	0.203
ACACCTGA	0.115
ACAGGCAG	-0.262
GTTAGCGA	0.0456
AAGGAATC	-0.00239
ATTACCCG	0.239
ATGCTTCC	-0.171
ACACGGCA	-0.114
CTCCGCTC	-0.101
TCAGCTCA	-0.00847
CACTGACA	-0.0013
CTGTTCAC	-0.104
CATCAATG	-0.0471
CTCCGGTA	0.0407
AAAGTCTG	-0.0325
CCTTACCC	0.208
CTTCTATA	0.0339
CATACGAG	-0.132
AATACCCT	0.379
GCGCAGGA	-0.351
AAAGCTTG	-0.0232
GGGTTCTA	0.198
AAAAGCCC	-0.167
AGTGAGGA	-0.16

Sequence	PBM E-score
CCCGCACA	-0.171
AAGGTTGT	0.384
TTAACTAA	0.246
AACCTGGG	0.0157
GCAAAGTA	-0.0277
TCCCCACA	-0.196
CCGGTATA	0.0363
ACGGATCA	-0.0433
AAATTCTA	-0.0171
AGTCAATA	-0.0386
GCTTTGCC	-0.379
AGCGGCGA	-0.156
GCTTCCAA	-0.0531
ACGTATAG	-0.182
AACTTACC	0.0142
GACTAAAA	0.168
CTAACAAC	0.226
GTTTCCAA	-0.00834
GGGTCAAA	0.263
AGTCCCTA	-0.034
ATAGGATA	0.0277
ATGCGCAG	-0.27
ACGGCGGG	0.0714
CGGGGCGC	-0.115
GGAGCAAA	-0.275

Sequence	PBM E-score
CAAGCCTC	-0.222
TTCAGAAA	0.118
ATGTAATG	0.202
AACAGGCC	-0.24
CCAAACCC	0.162
ACCTCAAT	0.237
AAGTGATA	-0.136
AAGTTTCG	0.0696
TAATTGGA	0.164
AGTACTTG	-0.0331
CGATCAGA	-0.196
CGAATATA	0.0846
CACGGAGA	-0.188
AACATGTT	0.00555
CTCCAGGA	-0.213
GCCGATAA	-0.0954
CGGGCACA	-0.161
CGACCGCC	-0.18
TAAAATCA	0.0965
GCAGGGGC	-0.206
AGAAACCG	0.0611
GTCTGATA	-0.117
ATTGCCGG	-0.111
CAGCGCAC	-0.278
AGGCTCGG	-0.383

Sequence	PBM E-score
TATTGGAA	0.0272
ACTTTACA	0.111
CGCTCTAC	-0.0893
CGGATAAA	0.147
CCCGACTA	-0.0609
AAACGCAT	-0.0553
TATGATAA	0.233
TCGGGAAA	-0.0382
GTCTAATA	0.0115
ATAATCAA	0.0789
CCATCCGA	0.0101
ATTTGACA	0.0851
CGGCGGAG	-0.226
GCAATTTA	0.134
AGAGTGCC	-0.117
CTAAGGGC	-0.0125
GCACTGGA	-0.136
GATCGCTA	0.0298
AAAGTAGA	-0.0244
CCTGCTCG	-0.0742
CTCGACGA	-0.13
GCCAATCC	-0.142
CTCAGGGA	0.016
ATGCGGCA	-0.0342
ACCGCGGC	0.248

Sequence	PBM E-score
ACTACCGC	0.172
CAACCTGC	0.0864
AAGGCTCG	-0.248
CCCTTCGG	0.205
AGACTCCC	-0.195
TGCCTCAA	-0.144
CACTCCAC	-0.0374
AGACTCCT	-0.112
ACGCTTCG	-0.164
CGCCGGCC	-0.122
ATCTAGGC	-0.197
TCACGAAA	0.0976
CGCTTATA	0.0122
ACTTTCTG	0.0107
CGACGAAC	-0.0937
CGTCTTTC	-0.257
AAGCAAAG	-0.148
AGATGCCC	-0.313
CTGTGTCA	-0.107
GCAGTAGA	-0.159
CCTATTAC	0.115
CGCGATCA	0.0401
CTCTCCAC	-0.209
AATCCAAC	-0.0925
ACGTTTCT	-0.292

Sequence	PBM E-score
GCGAATGA	0.0463
AGGTGGTA	0.172
ACGACCCT	0.348
CACCTCTG	-0.0642
AACACACG	-0.0306
TGCACCAA	-0.199
AACGTTGA	0.0837
AGGCTGCC	-0.127
TATGTTCA	0.116
CATACACC	-0.03
CAAGGGTA	0.398
ATTGCCTC	-0.149
CGATTGTA	0.11
CTCGATTA	0.0137
CGGGCGTC	-0.118
CGGAGAGC	-0.282
AGCTAAAT	-0.123
ATATGGCC	-0.016
GAAAACTA	0.1
AGAGTTGC	-0.0946
ACGTGGCT	-0.184
GGAAACAC	0.121
GCAAGGCA	-0.288
AATGCTTG	-0.188
TTGCTAAA	-0.0992

Sequence	PBM E-score
GTCCGCCA	-0.022
GCAGATGC	-0.337
TAACAAAA	0.233
AAGCCAAT	-0.015
CACAGGCG	-0.236
TCGTTGCA	-0.0835
GGCCACAC	0.0649
ACATTGTA	-0.038
GCCGCAGA	-0.11
CATTTCAG	-0.0373
GCTCGCCA	-0.11
ACTGGTAA	0.252
GCTCCCAA	-0.0337
AAACGTGA	0.0665
AGCAGTTG	-0.153
ACCAGCTA	-0.108
ATTATCCC	0.0804
ATGCGCAA	-0.0977
CGTGAAAG	0.1
ACTGCCCA	-0.154
CTAAGTGC	-0.0535
CCATAGGG	0.236
GTCTGCGA	-0.158
AGATGATC	-0.0279
AGTCGTCG	-0.277

Sequence	PBM E-score
CGTCATTC	0.0455
TGCAAGCA	-0.156
CATGCTCA	-0.0306
AGCCTTCG	-0.341
CATGCCTC	-0.192
CAGGCAGA	-0.186
GTAGCTAA	0.118
CTAGCGGC	-0.299
AGTAGGCC	-0.174
AACTGGTC	0.0163
GCCGCGTA	-0.113
AGAGGGTG	0.229
CGAGGATA	-0.0862
ATCGTGGA	0.063
GAAGCGAC	-0.241
AAGCCTAT	-0.203
AACCAAGG	0.276
GCCTCAAA	0.00889
AAAGGCGT	-0.183
CTGCAGGC	-0.27
GCTAAACA	0.0333
CTATGCCA	-0.139
GGTTATAA	0.471
CAACCACG	0.123
GGTTAAAC	0.356

Sequence	PBM E-score
CGTAGTTC	-0.125
ATTTGGGC	-0.0897
GCCGAGGC	-0.0423
ATCGCTTC	-0.0638
CTTAAGGC	0.0797
GCAAACCA	0.132
CGAGCACG	-0.349
AGCGAGAT	-0.0192
CCTACAGA	-0.0474
ATCCTAGG	0.09
ACCCCGGT	0.246
CTGGAGCC	-0.23
AATGGGGT	0.31
CAGATCTC	-0.155
AGGCTCCC	-0.162
AGCACACC	-0.126
AACCAAAC	0.198
ACCAAAAA	0.302
ATTTAGGC	0.0733
